Results: the supplement of paper PMC3334620
In all, about 33,000 sequences were measured (“E-score (-0.5 to 0.5)”: median about -0.016, highest 2% from about 0.31 on). This is one part of the list.

Biological target: Cst6 (UniProt P40535)
Assay: PBM E-score (8-mer binding enrichment) (E-score (-0.5 to 0.5)); higher = stronger / more preferred TF binding; most listed sequences are background and not binding sites
Conditions: protein concentration: 200 nM; construct: GST-DNA-binding domain
Method in brief: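 PURExpress in vitro transcription/translation supplied GST-tagged yeast transcription factors, either full-length or DNA-binding domain. Applied at about 100-200 nM to universal all-10-mer Agilent arrays double-stranded by primer extension, the bound protein was detected with fluorescent anti-GST. E-scores, modified Wilcoxon-Mann-Whitney statistics, were given by the Universal PBM Analysis Suite to ungapped eight-base words pooled with their reverse complements after masliner normalisation.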

Row | Sequence | PBM E-score
1 | GATTGGGC | -0.0234
2 | GGAAAACA | 0.0595
3 | CTCTATCA | -0.0627
4 | CAAACGTA | 0.234
5 | ACTGACCT | -0.0553
6 | CGATAAAC | 0.035
7 | GTCTCAGA | -0.0476
8 | CGAGAATC | -0.091
9 | ATCGACCA | -0.228
10 | ACACAATC | 0.168
11 | CCCGCCTA | -0.00914
12 | GGATTAAC | -0.0254
13 | CGTCTAGC | -0.0645
14 | AATAAGAC | 0.0549
15 | AAGCCCGA | -0.187
16 | CGCCGCTC | 0.187
17 | ATGATATC | 0.266
18 | ATGAGCCA | -0.0404
19 | CCCCACGC | -0.334
20 | CAGGGATC | -0.407
21 | GACAAATA | 0.22
22 | AGGACTCG | -0.269

Row | Sequence | PBM E-score
23 | TGATTGCA | 0.164
24 | ACCCGCAC | -0.056
25 | CAGACGGG | -0.311
26 | AGGATTGC | -0.0703
27 | AAATCCCG | -0.0585
28 | AGACGTTA | 0.0355
29 | GACCTTGA | -0.176
30 | AGGTAGGG | -0.178
31 | AAACATCA | 0.268
32 | AGAATTCC | -0.00604
33 | GGTGCCAA | -0.104
34 | ACACTTGG | -0.0621
35 | ATCGGCTC | 0.0459
36 | ACTTCGAG | 0.123
37 | CACTATTC | 0.0942
38 | AAGGATGA | 0.0593
39 | CATGCACG | 0.0931
40 | AAGTTCGG | -0.0277
41 | CTGGACCA | -0.172
42 | AAGAGATG | 0.0322
43 | TGTCAGAA | 0.173
44 | GCTACAAA | 0.108

Row | Sequence | PBM E-score
45 | ACGTTGAA | 0.152
46 | ATGCAACC | 0.043
47 | CACGTGAG | -0.0105
48 | GCCCGATA | -0.173
49 | CCGCAAAG | 0.00041
50 | ACGGTTTC | -0.148
51 | ACGTCTCA | 0.141
52 | GCACATAC | -0.148
53 | CTGGTCGA | -0.343
54 | GATAGTTA | 0.107
55 | AATTCGAA | 0.059
56 | CTAGCTCA | -0.205
57 | CATGGATC | -0.125
58 | AGTATGCC | -0.0681
59 | AGGAGCAA | -0.131
60 | GAGTGGAA | -0.224
61 | AGGGCCAA | -0.298
62 | ACGTCAGC | 0.482
63 | AGCCAATC | -0.211
64 | GCTATGAC | 0.332
65 | CCGTCACG | 0.176
66 | TCCGAGCA | -0.103

Row | Sequence | PBM E-score
67 | ACCTAGCA | -0.128
68 | CCAAAGGC | -0.126
69 | AAGATATG | 0.201
70 | GAAGGCAA | 0.0691
71 | CGTAGTAA | 0.16
72 | AATCCAGG | -0.112
73 | AATGCGAT | 0.031
74 | ACAGACGA | -0.0573
75 | ACGAGTGG | -0.15
76 | AGTGATTG | 0.0756
77 | CCGGTGGA | -0.277
78 | ATTCTAGA | 0.133
79 | ACGTCGTA | 0.158
80 | GCAAGACA | -0.108
81 | GTTAATAA | 0.12
82 | CTGTCGAC | -0.0944
83 | CCACGGCG | 0.309
84 | TGGCCCAA | -0.0679
85 | CCACTCTC | -0.196
86 | CCGACCAA | -0.14
87 | GGGCAGCA | -0.171
88 | AGGCTCGA | 0.0255

Row | Sequence | PBM E-score
89 | AGCCCATC | -0.126
90 | ACGACACT | 0.134
91 | ACAGTCGC | -0.0759
92 | CAGGCAAG | -0.113
93 | CTGCAGCA | -0.0584
94 | CGCCGCCC | 0.024
95 | CTTCAGTA | 0.0381
96 | TAAAACCA | 0.0493
97 | ATCTGCGC | -0.0927
98 | ACGCGCTA | 0.121
99 | GCATGCAA | 0.0268
100 | CCAGGTCG | -0.233
101 | AAGGTAGG | 0.00569
102 | GAGGAAAA | 0.0455
103 | CGATCATA | 0.233
104 | AACGGTCT | -0.2
105 | AAACACTG | 0.0471
106 | CAGGTCAA | -0.146
107 | GGACGCCC | -0.334
108 | TGGTGAAA | 0.189
109 | CACGGATC | 0.143
110 | ACCTAAAT | 0.051
